Data: PubChem BioAssay (NCATS)
Values joined by “and” are separate entries in the source; they are usually repeats but may differ in a detail not shown here. Equal values may be shown once. This list was built around the results that the source calls inconclusive (neither active nor inactive); the mix of calls is not that of the screen. Active and inactive are the calls of the source. Unless noted, calls follow the shape of the dose curve; as a rule, active = well fitted curve in the direction sought with a large enough effect; inconclusive = small, poorly fitted or top-dose-only effect, or another doubt; inactive = no such curve, though single readings can be large; an effect the other way counts as inactive or inconclusive.

Experiments:
[1] = Quantitative high throughput screen for delayed death inhibitors of the malarial parasite plastid, 48 hour incubation (AID 488752); conditions: Plasmodium falciparum growth; series mostly up to 28.7 µM; also: potency is read from the fitted curve at half-maximal effect; nearly all actives have a fitted effect of over 65% in size
How it was run: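 Readout is firefly luciferase luminescence from a reporter integrated into the parasite genome, with lower signal taken as inhibited growth. Infected red cells (0.1% parasitemia, 2% hematocrit final) are cultured with compound for one 48 h cycle at 37 C.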

[2] = target: M-phase phosphoprotein 8 (Homo sapiens) (UniProt Q99549); experiment: qHTS Validation Assay for Inhibitors for MPP8 Chromodomain Interactions with Methylated Histone Tails (AID 488949); conditions: AlphaScreen MPP8 binding to H3K9me3 peptide; series mostly up to 57.1 µM;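 also: AlphaScreen signal from MPP8 chromodomain bound to biotinylated H3K9me3 peptide; top concentration of the series differs between compounds; % is scaled to controls: 0 for no effect and ±100 for the full control effect; nearly all actives have a fitted effect of over 55% in size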
Sequence of UniProt Q99549 (Q99549 whole entry, looked up): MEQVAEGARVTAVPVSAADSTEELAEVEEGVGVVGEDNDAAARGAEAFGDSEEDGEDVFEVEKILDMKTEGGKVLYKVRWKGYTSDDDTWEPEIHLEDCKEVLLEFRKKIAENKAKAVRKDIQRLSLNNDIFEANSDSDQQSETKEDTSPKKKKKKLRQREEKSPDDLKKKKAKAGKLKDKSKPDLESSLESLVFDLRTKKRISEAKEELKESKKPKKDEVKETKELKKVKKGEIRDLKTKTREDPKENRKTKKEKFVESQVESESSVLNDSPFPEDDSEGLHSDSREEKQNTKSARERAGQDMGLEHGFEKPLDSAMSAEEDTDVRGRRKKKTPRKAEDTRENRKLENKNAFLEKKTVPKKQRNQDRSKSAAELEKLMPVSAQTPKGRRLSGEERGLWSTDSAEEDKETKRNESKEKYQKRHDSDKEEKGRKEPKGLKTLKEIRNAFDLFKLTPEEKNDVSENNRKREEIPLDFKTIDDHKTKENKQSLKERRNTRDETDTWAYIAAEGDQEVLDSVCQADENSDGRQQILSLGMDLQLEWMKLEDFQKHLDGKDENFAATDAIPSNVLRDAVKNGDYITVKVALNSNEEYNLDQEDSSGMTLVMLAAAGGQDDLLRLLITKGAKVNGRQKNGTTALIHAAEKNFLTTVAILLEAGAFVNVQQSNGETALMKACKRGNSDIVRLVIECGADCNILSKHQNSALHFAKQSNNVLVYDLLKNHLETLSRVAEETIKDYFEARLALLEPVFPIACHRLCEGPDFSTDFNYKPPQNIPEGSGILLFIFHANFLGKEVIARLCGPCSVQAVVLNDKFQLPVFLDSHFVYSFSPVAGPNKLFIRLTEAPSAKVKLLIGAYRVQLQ
How it was run: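 Disruption of the preformed MPP8–trimethyl-H3K9 peptide complex (both 50 nM, 30 min, RT) is measured after 30 min compound exposure, using AlphaScreen proximity beads; aurintricarboxylic acid titration serves as plate control.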

[3] = Validation screen for small molecules that induce DNA re-replication in SW480 colon adenocarcinoma cells (AID 504364); conditions: DNA re-replication phenotype (high-content imaging); series mostly up to 46.1 µM; also: 0% is about no effect
How it was run: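 250 cells/well; compound pinned in; 48 hr, 37 C, 5% CO2; Hoechst added, 40 min; nuclear fluorescence imaged, 405 ex / 500-530 em; re-replication scored as increase in high-intensity nuclei.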

[4] = target: Glutaminase kidney isoform, mitochondrial (Homo sapiens) (UniProt O94925); experiment: qHTS for Inhibitors of Glutaminase (GLS): LOPAC Validation (AID 624146); conditions: glutaminase enzyme activity inhibition; series mostly up to 46.1 µM;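 also: glutamate product detected by oxidase and peroxidase coupled Amplex red fluorescence gain; % is scaled to controls: 0 for no effect and ±100 for the full control effect; nearly all actives have a fitted effect of over 60% in size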
Sequence of UniProt O94925 (O94925 whole entry, looked up, canonical isoform): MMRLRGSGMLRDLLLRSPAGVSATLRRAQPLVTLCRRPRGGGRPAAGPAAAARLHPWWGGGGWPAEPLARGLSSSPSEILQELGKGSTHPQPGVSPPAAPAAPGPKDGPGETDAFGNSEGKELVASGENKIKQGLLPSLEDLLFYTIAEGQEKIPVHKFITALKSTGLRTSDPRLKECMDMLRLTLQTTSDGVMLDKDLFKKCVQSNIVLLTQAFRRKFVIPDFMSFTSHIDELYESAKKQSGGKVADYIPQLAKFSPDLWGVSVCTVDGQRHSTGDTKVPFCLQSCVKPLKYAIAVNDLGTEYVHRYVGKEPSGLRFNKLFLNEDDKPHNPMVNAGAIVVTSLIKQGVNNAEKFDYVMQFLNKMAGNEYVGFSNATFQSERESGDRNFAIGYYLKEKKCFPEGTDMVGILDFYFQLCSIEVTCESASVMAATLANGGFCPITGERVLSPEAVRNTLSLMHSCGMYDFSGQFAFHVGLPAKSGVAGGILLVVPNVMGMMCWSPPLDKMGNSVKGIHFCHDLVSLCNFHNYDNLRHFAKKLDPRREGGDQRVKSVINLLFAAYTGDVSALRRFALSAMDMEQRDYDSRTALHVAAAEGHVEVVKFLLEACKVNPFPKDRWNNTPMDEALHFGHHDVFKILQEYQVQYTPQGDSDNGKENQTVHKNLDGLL
How it was run: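 Human kidney-isoform GLS in 45 mM KH2PO4 pH 8.2, 0.02% Tween-20, with compound, started with 1mM L-Glutamine (added stock). Glutamate oxidase/HRP/Amplex red coupled fluorescence read at start and after 30 min at RT.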

[5] = qHTS for Activators of Parkin Expression: LOPAC Validation Assay (NLuc Reporter) (AID 720572; also: potency is read from the fitted curve at half-maximal effect); conditions: Parkin promoter NanoLuc reporter cells, luminescence
How it was run: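 Neuronal line stably carrying a FLuc/NLuc coincidence reporter under the Parkin promoter, seeded 24 h, then dosed in 7-point series for 24 h at 37 C. NLuc luminescence read after FLuc; normalized to DMSO and positive control (100%).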

[6] = target: Cytochrome P450 1A2 (Homo sapiens) (UniProt P05177); experiment: p450-cyp1a2 (AID 410; calls by dose curve;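 also: top concentration of the series differs between compounds; -100% = full effect of reference inhibitor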); conditions: recombinant CYP1A2, luciferin-ME demethylation, luminescence; series mostly up to 57 µM
Sequence of UniProt P05177 (P05177 whole entry, looked up): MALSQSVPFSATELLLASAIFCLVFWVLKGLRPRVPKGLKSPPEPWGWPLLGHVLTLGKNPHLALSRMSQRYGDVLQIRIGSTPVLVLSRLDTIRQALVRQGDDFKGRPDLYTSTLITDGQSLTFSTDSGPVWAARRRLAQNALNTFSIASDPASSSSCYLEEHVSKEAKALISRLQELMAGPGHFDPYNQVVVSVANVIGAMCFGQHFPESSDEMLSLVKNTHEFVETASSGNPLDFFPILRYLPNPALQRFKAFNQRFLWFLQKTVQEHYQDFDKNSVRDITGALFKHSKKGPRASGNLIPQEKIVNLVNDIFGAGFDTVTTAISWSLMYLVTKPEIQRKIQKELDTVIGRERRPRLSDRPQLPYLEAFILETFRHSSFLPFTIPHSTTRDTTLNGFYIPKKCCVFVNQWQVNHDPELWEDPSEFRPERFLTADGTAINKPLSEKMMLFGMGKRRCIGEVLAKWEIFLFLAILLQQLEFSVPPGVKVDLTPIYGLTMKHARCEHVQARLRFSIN
How it was run: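 Luminescent readout of luciferin formed from Luciferin-ME by human CYP1A2; data normalized against complete inhibition by 57 uM furafylline. Enzyme 20nM, substrate 100uM at Km, 100mM KPO4 buffer, 60 min reaction at room temperature.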

[7] = target: Glucocorticoid receptor (Homo sapiens) (UniProt P04150); experiment: GR-GFP Redistribution (AID 450;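 active = compounds whose dose series gives a full or clear partial fitted curve of increased nuclear translocation; inconclusive = weak partial curve or effect only at the top dose; inactive = no dose-dependent translocation response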; also: potency is read from the fitted curve at half-maximal effect); conditions: U2OS GR-GFP nuclear translocation, laser cytometry, 2 h
Sequence of UniProt P04150 (P04150 whole entry, looked up): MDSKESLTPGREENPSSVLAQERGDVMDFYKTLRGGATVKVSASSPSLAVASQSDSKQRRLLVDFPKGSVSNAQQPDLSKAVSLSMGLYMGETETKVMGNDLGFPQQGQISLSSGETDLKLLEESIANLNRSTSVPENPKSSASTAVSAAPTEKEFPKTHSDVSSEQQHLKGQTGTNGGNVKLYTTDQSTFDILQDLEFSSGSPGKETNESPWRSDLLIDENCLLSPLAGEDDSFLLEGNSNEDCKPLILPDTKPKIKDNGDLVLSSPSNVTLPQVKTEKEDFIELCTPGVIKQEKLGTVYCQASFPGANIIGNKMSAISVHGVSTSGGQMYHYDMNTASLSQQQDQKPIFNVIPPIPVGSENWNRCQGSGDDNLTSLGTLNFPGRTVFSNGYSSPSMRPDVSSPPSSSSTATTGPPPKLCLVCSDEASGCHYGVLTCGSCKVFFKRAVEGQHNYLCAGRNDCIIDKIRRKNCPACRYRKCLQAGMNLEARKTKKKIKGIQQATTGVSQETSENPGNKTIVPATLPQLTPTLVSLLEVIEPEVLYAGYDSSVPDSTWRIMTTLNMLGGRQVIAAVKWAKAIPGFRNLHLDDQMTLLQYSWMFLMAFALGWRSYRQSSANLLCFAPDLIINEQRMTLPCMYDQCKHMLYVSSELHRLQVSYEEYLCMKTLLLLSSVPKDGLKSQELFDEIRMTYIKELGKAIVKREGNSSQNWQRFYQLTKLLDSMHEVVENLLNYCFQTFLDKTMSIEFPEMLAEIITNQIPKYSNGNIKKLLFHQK

[8] = target: Peroxisome proliferator-activated receptor delta (Homo sapiens) (UniProt Q03181); experiment: qHTS assay for small molecule agonists of peroxisome proliferator-activated receptor delta signaling (AID 588534; calls by dose curve;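 also: 0% = DMSO basal wells and 100% = positive control agonist at 10 µM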); conditions: HEK293T PPARdelta-UAS-bla, beta-lactamase ratio, 18 h; activation: at 76.7 µM (top of the series)
Sequence of UniProt Q03181 (Q03181 whole entry, looked up): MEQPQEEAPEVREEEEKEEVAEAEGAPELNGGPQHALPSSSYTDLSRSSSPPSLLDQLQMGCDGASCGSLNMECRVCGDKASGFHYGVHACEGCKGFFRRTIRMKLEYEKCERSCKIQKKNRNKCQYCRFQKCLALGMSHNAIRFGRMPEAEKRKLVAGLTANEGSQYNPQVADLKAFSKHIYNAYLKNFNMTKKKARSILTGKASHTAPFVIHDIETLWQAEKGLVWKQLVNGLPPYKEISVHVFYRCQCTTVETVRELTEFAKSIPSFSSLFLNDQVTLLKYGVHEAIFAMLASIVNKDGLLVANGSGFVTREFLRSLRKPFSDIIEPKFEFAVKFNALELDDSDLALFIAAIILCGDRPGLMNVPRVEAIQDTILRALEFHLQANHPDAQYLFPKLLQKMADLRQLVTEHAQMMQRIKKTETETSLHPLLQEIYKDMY
How it was run: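 Fluorescence from CCF4 substrate cleavage by beta-lactamase reporter, read 2 hrs at RT, measured agonist activity. Compounds were tested with 18 hrs exposure at 37 C. Concentration-response data fitted to Hill equation.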

[9] = target: Peroxisome proliferator-activated receptor delta (Homo sapiens) (UniProt Q03181); experiment: qHTS assay for small molecule antagonists of peroxisome proliferator-activated receptor delta signaling (AID 588535; active = well fitted inhibition curve with a large enough effect in the signal ratio, with a control signal flat, not every such curve was filed as active; inconclusive = small, poorly fitted or top-dose-only effect, or effect the other way, or a change in a side signal; inactive = no such curve, though single readings can be large or run the other way; the % refers to the signal ratio); conditions: HEK293T PPARd-UAS-bla, beta-lactamase FRET ratio, 18 h; activity change, negative = inhibition: at 76.7 µM (top of the series)
How it was run: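 Reporter: UAS-bla under PPAR-delta response element, HEK293T host. Medium: 2% charcoal/dextran FBS. Dosing: titration, 18 hrs, 37 C. Detection: CCF4, 2 hrs RT, 405 ex/460 and 530 em.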

[10] = target: Thyroid hormone receptor beta (Homo sapiens) (UniProt P10828); experiment: qHTS assay for small molecule antagonists of thyroid hormone receptor beta signaling (AID 588547; active = well fitted inhibition curve with a large enough effect in the signal ratio, with a control signal flat, not every such curve was filed as active; inconclusive = small, poorly fitted or top-dose-only effect, or effect the other way, or a change in a side signal; the % refers to the signal ratio;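 also: cells stimulated with 0.4 nM T3 agonist during compound exposure; % is scaled to controls: 0 for no effect and ±100 for the full control effect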); conditions: TR-UAS-bla HEK293, beta-lactamase ratio, antagonist mode, 18 h
Sequence of UniProt P10828 (P10828 whole entry, looked up): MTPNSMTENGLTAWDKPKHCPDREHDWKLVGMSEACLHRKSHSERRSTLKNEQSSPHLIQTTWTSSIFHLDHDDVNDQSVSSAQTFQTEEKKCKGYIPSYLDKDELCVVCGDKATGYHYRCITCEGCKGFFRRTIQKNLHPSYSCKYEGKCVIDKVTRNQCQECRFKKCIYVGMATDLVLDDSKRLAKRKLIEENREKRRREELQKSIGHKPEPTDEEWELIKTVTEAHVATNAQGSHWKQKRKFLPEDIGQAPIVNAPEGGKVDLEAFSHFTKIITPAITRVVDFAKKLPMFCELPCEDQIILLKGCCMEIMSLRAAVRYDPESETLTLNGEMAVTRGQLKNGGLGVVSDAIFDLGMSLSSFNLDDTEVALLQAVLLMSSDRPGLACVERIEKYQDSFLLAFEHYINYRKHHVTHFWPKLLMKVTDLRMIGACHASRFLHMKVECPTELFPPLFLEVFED
How it was run: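 TR-UAS-bla GripTite HEK293 cells in 2% charcoal/dextran FBS medium were preincubated 4 h at 37 C, given compound (0.59 nM to 92 uM) plus 0.4 nM T3 (final) for 18 h, then CCF4 for 2 h at RT; Hill fit gave IC50.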

Question: With `CCOC(=O)C1=C(C)NC(C)=C(C(=O)OC)C1c1cccc(Cl)c1Cl` (stereo not given) as the compound, how does the Potency [1] read?
Answer: The Potency was active: 11700 nM.

Question: What about the Potency [2] of the same compound?
Answer: The Potency was “inactive”.

Question: What about the Potency [3] of the same compound?
Answer: The Potency was “inactive”.

Question: What about the Potency [4] of the same compound?
Answer: The Potency was “inactive”.

Question: What about the Potency [5] of the same compound?
Answer: The Potency was active: 2590 nM.

Question: For `NS(=O)(=O)c1cc(C(=O)O)cc(N2CCCC2)c1Oc1ccccc1`, which Potency [6] is on record?
Answer: Its Potency is “inactive”.

Question: And the Potency [7]?
Answer: Its Potency is active: 2810 nM.

Question: With `CCCCC(CC)COC(=O)c1ccccc1C(=O)O` (stereo not given) as the compound, how does the activation [8] read?
Answer: The activation was inconclusive: 7.18% and inconclusive: 5.72%.

Question: And the activity change, negative = inhibition [9]?
Answer: The activity change, negative = inhibition was inconclusive: 22.4%.

Question: And the activity change % (negative = inhibition) [10]?
Answer: Its activity change % (negative = inhibition) is inactive: -5.5% and inactive: 6.91%.
